According to paper PMC3302758 (Molecular Biology of the Cell, 2012):

Target: T1, 14-3-3β, endogenous in HEK293 cells (human (endogenous in HEK293), UniProt P31946 1-246)
T1 sequence (looked up): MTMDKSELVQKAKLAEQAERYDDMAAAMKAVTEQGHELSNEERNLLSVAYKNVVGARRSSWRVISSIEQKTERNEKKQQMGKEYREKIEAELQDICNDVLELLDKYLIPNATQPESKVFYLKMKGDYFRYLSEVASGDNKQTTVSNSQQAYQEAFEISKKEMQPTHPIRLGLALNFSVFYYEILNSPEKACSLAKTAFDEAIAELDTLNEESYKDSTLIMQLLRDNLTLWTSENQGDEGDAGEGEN
Assay: co-IP

B1: Cystic fibrosis transmembrane conductance regulator (CFTR), wild type, transiently expressed in HEK293 cells (natural protein)
chain: not shown
- fold increase of the co-precipitate with forskolin against basal: ~2 fold
